The campaign covered roughly 310,000 compounds. About 2,200 (0.71%) showed an effect of 50% or more. The effect is printed as a negative number. The list shows a part of the results.
target: human ether-à-go-go-related gene (hERG) potassium channel (human, UniProt Q12809); experiment: primary screen, population patch clamp on CHO cells stably expressing hERG
Sequence (Q12809 whole entry, looked up): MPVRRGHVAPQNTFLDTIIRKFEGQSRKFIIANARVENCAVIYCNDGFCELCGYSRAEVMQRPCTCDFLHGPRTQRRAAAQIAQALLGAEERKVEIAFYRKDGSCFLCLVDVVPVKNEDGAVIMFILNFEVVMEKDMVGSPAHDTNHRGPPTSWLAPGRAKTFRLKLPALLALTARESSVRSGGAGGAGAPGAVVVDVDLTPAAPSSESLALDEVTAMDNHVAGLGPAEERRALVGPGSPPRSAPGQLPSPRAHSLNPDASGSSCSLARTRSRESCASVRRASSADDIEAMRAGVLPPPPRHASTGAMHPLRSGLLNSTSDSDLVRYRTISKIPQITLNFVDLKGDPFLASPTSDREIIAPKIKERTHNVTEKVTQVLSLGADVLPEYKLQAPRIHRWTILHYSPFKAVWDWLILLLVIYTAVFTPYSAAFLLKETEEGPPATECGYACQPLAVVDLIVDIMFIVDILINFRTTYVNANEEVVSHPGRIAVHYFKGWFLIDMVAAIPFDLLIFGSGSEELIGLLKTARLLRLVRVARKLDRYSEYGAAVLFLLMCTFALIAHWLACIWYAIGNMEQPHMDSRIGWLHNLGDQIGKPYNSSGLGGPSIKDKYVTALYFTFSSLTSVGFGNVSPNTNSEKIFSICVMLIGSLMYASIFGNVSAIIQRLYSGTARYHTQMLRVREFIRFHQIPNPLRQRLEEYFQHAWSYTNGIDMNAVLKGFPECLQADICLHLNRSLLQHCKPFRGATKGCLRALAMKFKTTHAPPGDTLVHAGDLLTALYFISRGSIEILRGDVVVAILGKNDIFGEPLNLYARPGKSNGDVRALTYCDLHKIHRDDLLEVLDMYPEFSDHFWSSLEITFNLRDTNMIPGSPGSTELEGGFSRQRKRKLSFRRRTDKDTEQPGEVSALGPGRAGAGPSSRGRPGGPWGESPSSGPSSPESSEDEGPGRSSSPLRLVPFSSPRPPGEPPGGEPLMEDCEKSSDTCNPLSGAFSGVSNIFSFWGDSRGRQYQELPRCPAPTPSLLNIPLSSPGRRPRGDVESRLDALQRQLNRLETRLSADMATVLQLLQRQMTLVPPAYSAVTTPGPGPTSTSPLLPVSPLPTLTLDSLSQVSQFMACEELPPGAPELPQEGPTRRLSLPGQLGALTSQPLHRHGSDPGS

Row | SMILES | hERG current change (%, negative = inhibition) at 1uM
1 | O=C(COC(=O)CCCOc1ccc(Cl)cc1Cl)NCc1ccccc1 | 1.55%
2 | O=C1c2cccnc2C(=O)N1CO | 14.9%
3 | Cc1cc(C)c2c(C)c(C(=O)NCc3ccncc3)oc2c1 | 5.84%
4 | CCNC(=S)NNC(=O)CCn1cc(C)cn1 | 15.9%
5 | CC(C)N(Cc1ccccc1)C(=S)NCCN1CCOCC1 | 13.9%
6 | N#CCSC1=Nc2ccccc2C2=NC(CCC(=O)N3CCN(c4ccccc4)CC3)C(=O)N12 (stereo not drawn) | 5.82%
7 | O=C(Cc1ccc(Br)cc1)N1CCN(c2ccccn2)CC1 | -15.2%
8 | COC(=O)CC1=C(C(=O)OC)C(c2ccncc2)C(C#N)=C(N)O1 (stereo not drawn) | 6.75%
9 | CC1=C(C(=O)Nc2ccccc2)C(c2ccco2)C(C#N)=C(SCc2ccccc2)N1 (stereo not drawn) | 9.12%
10 | O=C(NCCNC(=O)c1ccco1)c1ccc(Cl)c(Cl)c1 | 11.2%
11 | COc1ccc(/C=N/NC(=O)c2ccn[nH]2)cc1Cn1nc(C)c([N+](=O)[O-])c1C | 12.8%
12 | O=C(O)CCc1ccc(-c2cccs2)n1CC1CCCO1 (stereo not drawn) | -6.79%
13 | CN(C)CCNC(C(=O)Nc1cccc(S(=O)(=O)N2CCOCC2)c1)c1ccccc1 (stereo not drawn) | -15.5%
14 | Cn1c(Cn2cnc([N+](=O)[O-])n2)nnc1SCC(=O)Nc1ccccc1 | 13.9%
15 | CCN1CCN(Cc2ccc(NC(=O)c3ccc(C)c(/C=C/c4cnc(Nc5cc(N6CCNCC6)nc(C)n5)cn4)c3)cc2C(F)(F)F)CC1.O=C(O)C(F)(F)F | 11.6%
16 | Cc1c(C(=O)Nc2cccc(C(F)(F)F)c2)oc2ccc(S(=O)(=O)N3CCOCC3)cc12 | 5.91%
17 | Cc1ccccc1OCC(=O)OCC(=O)Nc1ccc(N2CCOCC2)cc1 | 9.24%
18 | C/C(=N\NC(=S)Nc1ccc(C)cc1)c1cccc(N)c1 | 5.32%
19 | O=C(O)Cc1coc(-c2ccc(F)cc2)n1 | 5.75%
20 | Cc1cc(C(=O)NCCCOC(C)C)c2ccccc2n1 | -6.91%
21 | Cc1ccc(NC(=O)CCSc2ccccc2)c(C)c1 | 6.29%
22 | CN(C)S(=O)(=O)c1ccc2c(c1)nc1n2CCC1 | 10.7%
23 | CCOC(=O)c1cccc(NC(=O)C2CCCO2)c1 (stereo not drawn) | -0.0787%

Row | SMILES | hERG current change (%, negative = inhibition) at 1uM
24 | Cc1nnc(NC(=O)C2CCN(c3nnnn3-c3ccccc3)CC2)s1 | -9.17%
25 | COC(=O)c1sc(-c2cccs2)cc1N | 11.6%
26 | CC(C)CN(CC(C)C)c1ccc(C=C2C(=O)NC(=S)NC2=O)cc1[N+](=O)[O-] | 7.8%
27 | COc1ccc(NC(=O)/C(=C\c2cccnc2)NC(=O)c2cccs2)cc1 | 5.37%
28 | CCN(c1ccccc1)S(=O)(=O)c1cnc[nH]1 | 7.28%
29 | Cn1c(SCC(=O)Nc2cccc(C(=O)O)c2)nnc1-c1cc2cc(Br)ccc2o1 | 7.62%
30 | COCCNC(=O)CN1CCN(Cc2cccc(Cl)c2)C1=O | 7.21%
31 | COc1ccc(CNC(=O)C2CCN(c3nc(-c4ccccc4)nc4c3CCC4)CC2)cc1 | 4.67%
32 | C=CCC1(CC=C)CCCN1C(=O)CC1C(=O)NCCN1Cc1cccc(OC)c1 (stereo not drawn) | 6.95%
33 | CCOC(=O)N1CCN(S(=O)(=O)c2c(C)[nH]c(=O)[nH]c2=O)CC1 | 7.3%
34 | CC(=O)Nc1ccc(S(=O)(=O)NCc2ccc(C(=O)NCCN3CCCCCC3)cc2)cc1 | 12.5%
35 | C[C@H](NC(=O)Nc1cccc(C(F)(F)F)c1)C(=O)O | 2.04%
36 | Nc1ccc2[nH]ncc2c1 | 15.6%
37 | COCc1cc(C)nc(OCC(=O)N/N=C/c2ccccc2O)c1C#N | 16.6%
38 | Clc1ccc(CN2CCCCCC2)cc1Cl | 6%
39 | CCOC(=O)C1CCN(S(=O)(=O)c2ccc(C(C)(C)C)cc2)CC1 | 20%
40 | COCCCC1CCN(Cc2nc(-c3ccccc3)no2)CC1 | -2.14%
41 | Cc1cccc(OCC(=O)NC(Cc2c[nH]c3ccccc23)C(=O)O)c1C (stereo not drawn) | 13.6%
42 | CCN1C(=O)c2ccccc2S(=O)(=O)c2ccc(C(=O)NC(C)C)cc21 | 5.38%
43 | O=C(NN=C1CCCCCC1)c1c[nH]c2ccccc12 | 12.9%
44 | [Br-].c1ccc2c(C[n+]3csc4ccccc43)cccc2c1 | 11.6%
45 | CC(C)Oc1ccc(CCc2nnc(SCC(=O)O)n2-c2ccccc2)cc1 | 10%
